{"source": "the supplement of paper PMC12217912", "parents": {"B1": {"name": "TEV protease; numbered along this chain (parent)", "chain": "MGESLFKGPRDYNPISSSICHLTNESDGHTTSLYGIGFGPFIITNKHLFRRNNGTLVVQSLHGVFKVKDTTTLQQHLVDGRDMIIIRMPKDFPPFPQKLKFREPQREERICLVTTNFQTKSMSSMVSDTSCTFPSGDGIFWKHWIQTKDGQCGSPLVSTRDGFIVGIHSASNFTNTNNYFTSVPKNFMELLTNQEAQQWVSGWRLNADSVLWGGHKVFMVKPEEPFQPVKEATQL"}}, "variants_of": "B1", "assay": "raw area under fraction-flipped curve 0-4 h after induction (AUC4h, not background-subtracted), DNA-recorder readout of cleavage of the substrate (dimensionless); higher = more cleavage of the substrate by the protease variant", "conditions": "temperature: 34 °C; time window: 0-4 h after rhamnose induction", "note": "This is one part of the list. Sequences were assembled here from the parent chain. Values near 0.05 are background.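 Further: Bxb1 expression induced with 0.2% (w/v) L-rhamnose at OD600 near 0.5, cultures sampled hourly, flipped fraction per protease–substrate barcode pair counted by paired-end Illumina sequencing.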"}
{"variant": "MGESLFKGPRDYNPISSSICHLTNESDGHTTSLYGIGFGPFIITNKHLFRRNNGTLVVQSLHGVFKVKDTTTLQQHLVDGRDMIIIRSPKDFPPFPQKLKFREPQREERICLVTTNFQTKSMSSMVSDTSCTFPSGDGIFWKHWIQTKDGQCGSPLVSTRDGFIVGIHSASNFTNTNNYFTSVPKNFMELLTNQEAQQWVSGWRLNADSVLWGGHKVFMVKPEEPFQPVKEATQL", "note": "[M88S]", "values": [{"measurement": "area with substrate ENLYDQS", "result": 0.0517}, {"measurement": "area with substrate ENLYEQS", "result": 0.0639}, {"measurement": "area with substrate ENLYGQS", "result": 0.0564}, {"measurement": "area with substrate ENLYHQS", "result": 0.0704}, {"measurement": "area with substrate ENLYIQS", "result": 0.0768}, {"measurement": "area with substrate ENLYKQS", "result": 0.0588}, {"measurement": "area with substrate ENLYMQS", "result": 0.0626}, {"measurement": "area with substrate ENLYQQS", "result": 0.0527}, {"measurement": "area with substrate ENLYRQS", "result": 0.0461}, {"measurement": "area with substrate ENLYSQS", "result": 0.0438}, {"measurement": "area with substrate ENLYTQS", "result": 0.0339}, {"measurement": "area with substrate ENLYVQS", "result": 0.0925}]}
{"variant": "MGESLFKGPRDYNPISSSICHLTNESDGHTTSLYGIGFGPFIITNKHLFRRNNGTLVVQSLHGVFKVKDTTTLQQHLVDGRDMIIIRMPYDFPPFPQKLKFREPQREERICLVTTNFQTKSMSSMVSDTSCTFPSGDGIFWKHWIQTKDGQCGSPLVSTRDGFIVGIHSASNFTNTNNYFTSVPKNFMELLTNQEAQQWVSGWRLNADSVLWGGHKVFMVKPEEPFQPVKEATQL", "note": "[K90Y]", "values": [{"measurement": "area with substrate ENLYDQS", "result": 0.0824}, {"measurement": "area with substrate ENLYHQS", "result": 0.043}, {"measurement": "area with substrate ENLYKQS", "result": 0.0627}, {"measurement": "area with substrate ENLYMQS", "result": 0.0717}, {"measurement": "area with substrate ENLYNQS", "result": 0.0758}, {"measurement": "area with substrate ENLYQQS", "result": 0.0628}, {"measurement": "area with substrate ENLYSQS", "result": 0.0714}]}
{"variant": "MGESLFKGPRDYNPISSSICHLTNESDGHTTSLYGIGFGPFIITNKHLFRRNNGTLVVQSLHGVFKVKDTTTLQQHLVDGRDMIIIRMPKDFPPFGQKLKFREPQREERICLVTTNFQTKSMSSMVSDTSCTFPSGDGIFWKHWIQTKDGQCGSPLVSTRDGFIVGIHSASNFTNTNNYFTSVPKNFMELLTNQEAQQWVSGWRLNADSVLWGGHKVFMVKPEEPFQPVKEATQL", "note": "[P96G]", "values": [{"measurement": "area with substrate ENLYDQS", "result": 0.0513}, {"measurement": "area with substrate ENLYEQS", "result": 0.0643}, {"measurement": "area with substrate ENLYIQS", "result": 0.126}, {"measurement": "area with substrate ENLYKQS", "result": 0.051}, {"measurement": "area with substrate ENLYMQS", "result": 0.0782}, {"measurement": "area with substrate ENLYNQS", "result": 0.068}, {"measurement": "area with substrate ENLYPQS", "result": 0.0732}, {"measurement": "area with substrate ENLYSQS", "result": 0.0707}, {"measurement": "area with substrate ENLYTQS", "result": 0.0762}, {"measurement": "area with substrate ENLYVQS", "result": 0.161}]}
{"variant": "MGESLFKGPRDYNPISSSICHLTNESDGHTTSLYGIGFGPFIITNKHLFRRNNGTLVVQSLHGVFKVKDTTTLQQHLVDGRDMIIIRMPKDFPPFPFKLKFREPQREERICLVTTNFQTKSMSSMVSDTSCTFPSGDGIFWKHWIQTKDGQCGSPLVSTRDGFIVGIHSASNFTNTNNYFTSVPKNFMELLTNQEAQQWVSGWRLNADSVLWGGHKVFMVKPEEPFQPVKEATQL", "note": "[Q97F]", "values": [{"measurement": "area with substrate ENLYDQS", "result": 0.0695}, {"measurement": "area with substrate ENLYGQS", "result": 0.0539}, {"measurement": "area with substrate ENLYIQS", "result": 0.141}, {"measurement": "area with substrate ENLYKQS", "result": 0.0686}, {"measurement": "area with substrate ENLYNQS", "result": 0.0653}, {"measurement": "area with substrate ENLYPQS", "result": 0.0706}, {"measurement": "area with substrate ENLYTQS", "result": 0.0647}, {"measurement": "area with substrate ENLYWQS", "result": 0.0627}]}
{"variant": "MGESLFKGPRDYNPISSSICHLTNESDGHTTSLYGIGFGPFIITNKHLFRRNNGTLVVQSLHGVFKVKDTTTLQQHLVDGRDMIIIRMPKDFPPFPKKLKFREPQREERICLVTTNFQTKSMSSMVSDTSCTFPSGDGIFWKHWIQTKDGQCGSPLVSTRDGFIVGIHSASNFTNTNNYFTSVPKNFMELLTNQEAQQWVSGWRLNADSVLWGGHKVFMVKPEEPFQPVKEATQL", "note": "[Q97K]", "values": [{"measurement": "area with substrate ENLYDQS", "result": 0.0763}, {"measurement": "area with substrate ENLYIQS", "result": 0.114}, {"measurement": "area with substrate ENLYTQS", "result": 0.0906}, {"measurement": "area with substrate ENLYWQS", "result": 0.0527}]}
{"variant": "MGESLFKGPRDYNPISSSICHLTNESDGHTTSLYGIGFGPFIITNKHLFRRNNGTLVVQSLHGVFKVKDTTTLQQHLVDGRDMIIIRMPKDFPPFPQYLKFREPQREERICLVTTNFQTKSMSSMVSDTSCTFPSGDGIFWKHWIQTKDGQCGSPLVSTRDGFIVGIHSASNFTNTNNYFTSVPKNFMELLTNQEAQQWVSGWRLNADSVLWGGHKVFMVKPEEPFQPVKEATQL", "note": "[K98Y]", "values": [{"measurement": "area with substrate ENLYDQS", "result": 0.06}, {"measurement": "area with substrate ENLYEQS", "result": 0.0695}, {"measurement": "area with substrate ENLYGQS", "result": 0.0531}, {"measurement": "area with substrate ENLYHQS", "result": 0.0723}, {"measurement": "area with substrate ENLYIQS", "result": 0.135}, {"measurement": "area with substrate ENLYKQS", "result": 0.0562}, {"measurement": "area with substrate ENLYMQS", "result": 0.093}, {"measurement": "area with substrate ENLYPQS", "result": 0.0693}, {"measurement": "area with substrate ENLYRQS", "result": 0.0554}, {"measurement": "area with substrate ENLYTQS", "result": 0.085}, {"measurement": "area with substrate ENLYVQS", "result": 0.109}, {"measurement": "area with substrate ENLYWQS", "result": 0.0771}, {"measurement": "area with substrate ENLYYQS", "result": 0.0615}]}
{"variant": "MGESLFKGPRDYNPISSSICHLTNESDGHTTSLYGIGFGPFIITNKHLFRRNNGTLVVQSLHGVFKVKDTTTLQQHLVDGRDMIIIRMPKDFPPFPQKLKDREPQREERICLVTTNFQTKSMSSMVSDTSCTFPSGDGIFWKHWIQTKDGQCGSPLVSTRDGFIVGIHSASNFTNTNNYFTSVPKNFMELLTNQEAQQWVSGWRLNADSVLWGGHKVFMVKPEEPFQPVKEATQL", "note": "[F101D]", "values": [{"measurement": "area with substrate ENLYDQS", "result": 0.0523}, {"measurement": "area with substrate ENLYGQS", "result": 0.0612}, {"measurement": "area with substrate ENLYQQS", "result": 0.053}, {"measurement": "area with substrate ENLYWQS", "result": 0.0507}]}
{"variant": "MGESLFKGPRDYNPISSSICHLTNESDGHTTSLYGIGFGPFIITNKHLFRRNNGTLVVQSLHGVFKVKDTTTLQQHLVDGRDMIIIRMPKDFPPFPQKLKYREPQREERICLVTTNFQTKSMSSMVSDTSCTFPSGDGIFWKHWIQTKDGQCGSPLVSTRDGFIVGIHSASNFTNTNNYFTSVPKNFMELLTNQEAQQWVSGWRLNADSVLWGGHKVFMVKPEEPFQPVKEATQL", "note": "[F101Y]", "values": [{"measurement": "area with substrate ENLYDQS", "result": 0.0403}, {"measurement": "area with substrate ENLYEQS", "result": 0.0628}, {"measurement": "area with substrate ENLYGQS", "result": 0.0575}, {"measurement": "area with substrate ENLYNQS", "result": 0.0569}, {"measurement": "area with substrate ENLYPQS", "result": 0.0393}]}
{"variant": "MGESLFKGPRDYNPISSSICHLTNESDGHTTSLYGIGFGPFIITNKHLFRRNNGTLVVQSLHGVFKVKDTTTLQQHLVDGRDMIIIRMPKDFPPFPQKLKFKEPQREERICLVTTNFQTKSMSSMVSDTSCTFPSGDGIFWKHWIQTKDGQCGSPLVSTRDGFIVGIHSASNFTNTNNYFTSVPKNFMELLTNQEAQQWVSGWRLNADSVLWGGHKVFMVKPEEPFQPVKEATQL", "note": "[R102K]", "values": [{"measurement": "area with substrate ENLYDQS", "result": 0.0553}, {"measurement": "area with substrate ENLYEQS", "result": 0.0788}, {"measurement": "area with substrate ENLYGQS", "result": 0.0662}, {"measurement": "area with substrate ENLYHQS", "result": 0.0649}, {"measurement": "area with substrate ENLYMQS", "result": 0.0874}, {"measurement": "area with substrate ENLYNQS", "result": 0.0814}, {"measurement": "area with substrate ENLYPQS", "result": 0.0703}, {"measurement": "area with substrate ENLYQQS", "result": 0.0605}, {"measurement": "area with substrate ENLYSQS", "result": 0.0914}, {"measurement": "area with substrate ENLYTQS", "result": 0.0856}, {"measurement": "area with substrate ENLYVQS", "result": 0.123}, {"measurement": "area with substrate ENLYWQS", "result": 0.0899}]}
{"variant": "MGESLFKGPRDYNPISSSICHLTNESDGHTTSLYGIGFGPFIITNKHLFRRNNGTLVVQSLHGVFKVKDTTTLQQHLVDGRDMIIIRMPKDFPPFPQKLKFREPQRCERICLVTTNFQTKSMSSMVSDTSCTFPSGDGIFWKHWIQTKDGQCGSPLVSTRDGFIVGIHSASNFTNTNNYFTSVPKNFMELLTNQEAQQWVSGWRLNADSVLWGGHKVFMVKPEEPFQPVKEATQL", "note": "[E107C]", "values": [{"measurement": "area with substrate ENLYDQS", "result": 0.0564}, {"measurement": "area with substrate ENLYEQS", "result": 0.0501}, {"measurement": "area with substrate ENLYGQS", "result": 0.0739}, {"measurement": "area with substrate ENLYIQS", "result": 0.105}, {"measurement": "area with substrate ENLYKQS", "result": 0.0642}, {"measurement": "area with substrate ENLYSQS", "result": 0.0786}, {"measurement": "area with substrate ENLYWQS", "result": 0.0569}, {"measurement": "area with substrate ENLYYQS", "result": 0.0601}]}
{"variant": "MGESLFKGPRDYNPISSSICHLTNESDGHTTSLYGIGFGPFIITNKHLFRRNNGTLVVQSLHGVFKVKDTTTLQQHLVDGRDMIIIRMPKDFPPFPQKLKFREPQRELRICLVTTNFQTKSMSSMVSDTSCTFPSGDGIFWKHWIQTKDGQCGSPLVSTRDGFIVGIHSASNFTNTNNYFTSVPKNFMELLTNQEAQQWVSGWRLNADSVLWGGHKVFMVKPEEPFQPVKEATQL", "note": "[E108L]", "values": [{"measurement": "area with substrate ENLYDQS", "result": 0.0568}, {"measurement": "area with substrate ENLYGQS", "result": 0.0573}, {"measurement": "area with substrate ENLYHQS", "result": 0.0498}, {"measurement": "area with substrate ENLYIQS", "result": 0.0922}, {"measurement": "area with substrate ENLYKQS", "result": 0.0522}, {"measurement": "area with substrate ENLYMQS", "result": 0.0671}, {"measurement": "area with substrate ENLYNQS", "result": 0.0274}, {"measurement": "area with substrate ENLYPQS", "result": 0.0628}, {"measurement": "area with substrate ENLYRQS", "result": 0.0659}]}
